According to the supplement of paper PMC10338343:
± gives the standard deviation. This is a selection; strong and weak results do not stand in their true shares.

The sequences below were run on MIWI (PIWIL1) piRISC loaded with L1MC piRNA (30 nt) (assay: pre-steady-state target cleavage rate (min^-1); MIWI and MILI are mouse PIWI proteins and EfPiwi is from a freshwater sponge; tags in brackets are library labels; higher = faster piRNA-guided slicing of the target). Conditions: guide: L1MC piRNA 5'p-UAACUAAAUACUAUGCAAGCUGUAGGUCCU; auxiliary factor: 500 nM mouse GTSF1.
Outline: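 In HEPES–potassium acetate buffer at 33 °C, […] transcribed, DNA-blocked target RNA library was mixed with 1 nM active affinity-purified piRISC carrying one synthetic guide, with or without 500 nM GTSF1 partner protein, for 0–8 or 0–960 min. Uncleaved targets were sequenced and normalised to depth and to weakly complementary targets; three trials were pooled and k3 was capped at 0.0001 min^-1. The pre-steady-state cleavage rate followed from a burst-and-steady-state fit.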
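Note: 1 nM active piRISC with 0.1 nM target library at 33 °C single turnover.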

Sequence | pre-steady-state target cleavage rate
UCCUGGAUGUGCUUGCUAUGUAUUUAGUUA | 0.00387 ± 0.0032
UCGACCUACAGCUUGCAUAGUAAAUAGAAA | 0.265 ± 0.053
UCCUGGUACAGCUAGCAUAGUAUUUUCAAA | 0.162 ± 0.03
UCCACCUACAGCAAGCAUAGUAUUUAGUAA | 0.507 ± 0.042
UCCUCCUACAGCUUGCAAAGUAUUUUCAAA | 0.257 ± 0.039
UCCACCUACAGCUUGCAUAGUAUAAUGUAA | 0.143 ± 0.031
AGGACCUACAGCUUGCAAUGUAUUUUCAAA | 0.0821 ± 0.024
UCCUGGUACAGCAAGCAUAGUAUUUACAAA | 0.0933 ± 0.025
UCCUGGAUCAGCUUGCAUAGUAAAUAGUAA | 0.17 ± 0.038
UGGACCUACAGCUUGCAUAGUAUAAUCAAA | 0.205 ± 0.039
UCCUGCUACAGCUUCGAUAGUAUUUAGAAA | 0.0608 ± 0.015
UCCUGGAUGUCGGUGCAUAGUAUUUAGUUA | 0.00478 ± 0.0028
UCCUCCUACACGUUGCAUAGUAUUUACAAA | 0.173 ± 0.028
UCCUCCUACAGCUUGCAUAGUUUUUUCAAA | 0.127 ± 0.028
UCCUGGAUGUCGAACCAUAGUUAAUAGUUA | < 0.0001
UCCUGGUAGUGCUUGCAUAGUAUUUUCAAA | 0.0148 ± 0.0054
UCCUGGAUGUCGAACGUAUGGUAUUUAGUUA | < 0.0001
UCCUCCUACAGCUUGCAUCAGUAUUUAGUUA | 0.0862 ± 0.028
UCCUGGAACAGCUUGCAUAGUAUUAUCUAA | 0.167 ± 0.03

Sequence | pre-steady-state target cleavage rate
UCCUGGAACAGCUUGCAUAGUAAAUAGUAA | 0.28 ± 0.057
UCCUGCUACAGCUUGCAUAGUAAAAAGUUA | 0.362 ± 0.043
UCCUGGAUGUCGAACCAUAGAAUUUUGUUA | 0.146 ± 0.086
UCCUGGAUGUCGAUGCAUAGUAUUUAGUUC [g2:g17:cont:t1C] | 0.00513 ± 0.0032
UCCUGGAUCAGCUUGCAAAGUAUUUUCAAA | 0.0494 ± 0.013
UGGACCUACAGCUUGCAUAGUUAUUUCAAA | 0.0192 ± 0.009
UCGACCUACAGCUACCAUAGUAUUUACAAA | 0.0302 ± 0.013
UCCUCCUACAGCAAGCAUAGUAUUUAGUAA | 0.698 ± 0.058
UCGACCUACAGCUUGCAUAGUUUUAGUUA | 0.0671 ± 0.024
UCCACCUACAGCUUCCAAAGUAUUUAGUUA | 0.298 ± 0.036
UCCUCCUACAGCAACCAUAGUAUUUAGUUA | 0.188 ± 0.026
UCCUCCUACAGCUUGCAUAGUUAAAUCAAA [g10:g26:cont:t1A] | 0.0418 ± 0.016
UCCUGCUACAGCUUGCUUAGUAUUUAGAAA | 0.212 ± 0.04
UCCUGGAUGAGGAUGCAUAGUAUUUAGUUA | 0.0231 ± 0.006
UCCUCCUACAGCAAGCAUAGUAUUUAGAAA | 0.391 ± 0.062
UCCUGGAUGUCGUUGCAUAGUAUUCUAGUUA | 0.00471 ± 0.004
UCCUGGAUGAGCUUGCAUAGUCAUUUAGUUA | 0.00516 ± 0.004
UCCUGGAUGUCGAACGUAUCUAUAAAGUUA | < 0.0001
UCCUGGAUGAGCUUGGUUAGUAUUUAGUAA | 0.0792 ± 0.013
